Measurements as given in a collection of fitness landscapes (doi:10.1016/j.celrep.2020.107928).
Over roughly 81,000 sequences, “one-hybrid fitness for binding NBS DNA” has its median near -0.1; the highest 2% begin near 0.36. This is one part of the list.

B1: Caulobacter ParB omega fusion; a variant is named by its letters at X, in order, B8GW30 (parent)
chain: MESVVVGEPGMSEGRRGLGRGLSALLGEVDAAPAQAPGEQLGGSREAPIEILQRNPDQPRRTFREEDLEDLSNSIREKGVLQPILVRPSPDTAGEYQIVAGERAWRAAQRAGLKTVPIMVRELDDLAVLEIGIIENVQRADLNVLEEALSYKVLMEKFERTQENIAQTIGKSXSHVANXMRLLXLPDEVQSYLVSGELTAXHARAIAAAADPVALAKQIIEGGLSVRETEALARKAPNLSAGKSKGGRPPRVKDTDTQALESDLSSVLGLDVSIDHRGSTGTLTITYATLEQLDDLCNRLTRGI

Variants of: B1
Assay: one-hybrid fitness for binding NBS DNA (the Noc-binding site; scaled: cognate 1, non-cognate 0); higher = stronger binding
Conditions: with NBS DNA site
Method in brief: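 Values were rescaled so that cognate is 1 and non-cognate is 0. Each is a fitness, the log change in a variant's read ratio to wild type from Illumina reads of plasmids before and after selection, with three replicate libraries pooled and variants under 10 reads dropped. Selection of the Caulobacter ParB libraries, four specificity codons randomised, used E. coli USO with a HIS3 reporter, site 19 bp from the promoter, on M9-minus-histidine with 0.1 mM IPTG and 5 mM 3-AT for 48 hours at 37°C.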

one-hybrid fitness for binding NBS DNA, 0.776:
RRMT

one-hybrid fitness for binding NBS DNA, 0.459:
TRNT

one-hybrid fitness for binding NBS DNA, 0.356:
RTKQ

one-hybrid fitness for binding NBS DNA, ≤ 0.2:
KRFL
CYPL
HLGW
LTDM
GVVR
SDDC
SIAQ
KHRD
TPMN
PTIR
SDFG
NNHR
AHSM
YHIT
NCRY
HTVS
GARQ
YYMV
VPLA
EFSD
TLII
KNNH
CHVS
YPMT
ACKS
GLSC
REGV
PDND
WTYS
LAHY
CWRN
QSYI
FQAS
PYEY
GNTL
GTDM
EWLW
HRLG
TGGD
CMRR
AHFD
AVVW
MRAL
SPII
SHCC
SYTK
KIRA
TWRV
MLRR
QFPW
PDLL
LHKS
WFEC
QDNW
WDAS
VPLK
IYNS
EKSF
DRDS
QWNS
ELMM
PYPL
LMWC
TTSD
FVTR
NGQR
HNDV
PLCP
NFTP
NGPG
DCDA
MMRV
RGIT
KAIY
KVTR
QCGL
PLQN
DPDA
QEHG
QSPK
ACPL
WWKC
WSPE
HPMT
LAVG
RPEL
VTTA
LVWE
KNAP
YQKS
GSYF
FSFL
VIPA
ASEH
PKAF
YPPA
IDRT
GYTF
DKAC
QFDT
RYWW
MIIL
SDGC
IMMD
RMHN
RVGI
VMFK
VQAG
YIIR
PRSF
SSER
MHVG
LHGF
PDSS
TYQN
GLET
QTDP
DLFS
FMNC
VIPT
WICG
IDPW
FRTY
KQPK
KQRH
CLAT
YHMG
WGPL
PEIL
SSTN
GRWS
CSVG
DHSL
TRNP
EDRS
NRFI
TANV
PRNA
TRIT
VDYS
PISF
EPPT
VKPC
HLRG
APTF
LRLD
WDMS
RYSF
CFGK
GPDG
SPVC
ATFN
TRTC
QFTK
SDTW
PAAP
YLAE
VFYW
NRGR
DMLG
KAET
WILL
QEPY
AIKS
PLQG
VVKG
PEWR
QICM
SRDR
PHGK
LFMC
HHKR
CWMR
QDRK
RGIC
EQSA
QLGY
QGSM
PAPI
SVLY
NKHC
GFRS
TWMR
QESP
VCDC
FYLT
GHAM
SADN

one-hybrid fitness for binding NBS DNA, 0.295:
RHRC

one-hybrid fitness for binding NBS DNA, 0.352:
QNRS

one-hybrid fitness for binding NBS DNA, 0.383:
QQRI

one-hybrid fitness for binding NBS DNA, 0.279:
RNHR
